{"source": "PubChem BioAssay AID1345083", "about": "(National Center for Advancing Translational Sciences (NCATS), 2018)", "note": "“And” between values parts separate entries of the source, which are not always exact repeats. Equal entries are not always repeated. Among all 94,000 compounds or so, about 6,200 (6.6%) were called active. Inconclusive results, whose numbers are uncertain, are shown with a selection of clear calls. Calls follow the shape of the dose curve; as a rule, active = well fitted inhibition curve with a large enough effect; inconclusive = small, poorly fitted or top-dose-only effect; inactive = flat fitted curve, though single readings scatter. A potency beside an inconclusive call is a rough fit, not a confirmed value. % is scaled to controls: 0 for no effect and ±100 for the full control effect; potency is read from the fitted curve at half-maximal effect; tags tell the direction and shape of the fitted curve."}
{"assay": "Cytotoxic Profiling in HEK 293 Cell Line of Diverse Libraries Using Quantitative High-Throughput Screening; also: nearly all actives have a fitted effect of over 60% in size", "settings": "HEK 293 viability, ATP luminescence (CellTiter-Glo), 48-72 h; activity change, negative = cytotoxicity: at 115 µM (top of the series) unless noted; series mostly up to 115 µM", "procedure,_shortened": "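Luminescence from cellular ATP, measured with CellTiter-Glo, indicates HEK 293 viability. Cells plated at 250 cells/well are treated with compound for 48 or 72 hr at 37 degree Celsius before reagent addition.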"}
{"smiles": "COCCNC(=O)c1nc2c(o1)CCN(Cc1cc(C)cc(F)c1)CC2", "Potency": "inconclusive: 112 µM [inhibitor, single point]"}
{"smiles": "O=C1CC2CCCC(C1)N2C(=O)c1ccc(C(F)(F)F)cc1", "Potency": "inactive"}
{"smiles": "O=c1n(-c2ccc(C(F)(F)F)cc2)nc2n1CCN(Cc1ccc(C(F)(F)F)cc1)C2", "Potency": "inconclusive: 63.1 µM [inhibitor, partial curve, poor fit] and active: 35.5 µM"}
{"smiles": "CCn1ccc(C(=O)Nc2ccc3ncnc(N4CCCC4)c3c2)n1", "Potency": "inconclusive: 89.1 µM [inhibitor, single point]"}
{"smiles": "COc1ccc(CC(=O)NCCNC(=O)c2cccc(-c3ccc(C(F)(F)F)cc3)c2)cc1", "Potency": "inconclusive: 100 µM [inhibitor, single point]"}
{"smiles": "C[C@@]1(O)CCN(Cc2ccc3c4c(cccc24)C(=O)OC3)C[C@@H]1O", "activity change, negative = cytotoxicity": "inactive: -17.2%"}
{"smiles": "COCc1nc(C2CCCN(C(=O)Cc3ccc(OC)cc3)C2)no1", "note": "(stereo not drawn)", "activity change, negative = cytotoxicity": "inactive: 0.016%"}
{"smiles": "CCC(C)NC(=O)C(NC(=O)c1ccc(C)cc1)C1CCN(C(=O)c2ccccc2C)CC1", "note": "(stereo not drawn)", "outcome": "inactive"}
{"smiles": "COc1cccc(-c2ccc(C(=O)N3CCC(NC(=O)c4ccccc4)CC3)cc2)c1", "Potency": "active: 44.7 µM"}
{"smiles": "CC1CCN(C(=O)c2ccccc2OCC2CCCN(C(=O)C3CCOCC3)C2)CC1", "note": "(stereo not drawn)", "activity change, negative = cytotoxicity": "inactive: -12.5%"}
{"smiles": "CCN(CC)C(=O)c1cccc2c1CCN2C(=O)Nc1cccc(C)c1", "Potency": "inconclusive: 50.1 µM [inhibitor, partial curve, poor fit]"}
{"smiles": "Cc1ccc(CC(=O)N2C[C@@H](COc3ccccc3)[C@H](C(N)=O)C2)cc1", "activity change, negative = cytotoxicity": "inactive: -12.9%"}
{"smiles": "Cc1cccc(C)c1CN1CCCC12Cc1ccccc1CNC2=O", "note": "(stereo not drawn)", "activity change, negative = cytotoxicity": "inactive: -15.8%"}
{"smiles": "COCCn1cnc2ccc(-c3cccnc3OC)nc2c1=O", "outcome": "inactive [at 172 µM]"}
{"smiles": "Cc1cc(NC(=O)c2cc3n(n2)CC(c2ccc(Cl)cc2)OC3)ccc1F", "note": "(stereo not drawn)", "Potency": "inconclusive: 79.4 µM [inhibitor, partial curve, poor fit]"}
{"smiles": "Cc1noc2c(N3CCOCC3)cc(-c3ccsc3)nc12", "Potency": "inconclusive: 56.2 µM [inhibitor, full curve, poor fit]"}
{"smiles": "O=[S+]([O-])(NC1CCN(Cc2cccc(-c3cccs3)c2)CC1)c1ccccc1", "Potency": "active: 35.5 µM and active: 44.7 µM"}
{"smiles": "CC(C)NC(=O)c1nc2cccnc2n(Cc2ccccc2)c1=O", "Potency": "inconclusive: 79.4 µM [inhibitor, partial curve]"}
{"smiles": "CC(C)CN1C(=O)CCc2cc(NC(=O)c3ccc4c(c3)OCO4)ccc21", "Potency": "active: 39.8 µM"}
{"smiles": "COc1cc2c(cc1OC)C(CNC(=O)c1cccs1)N(C(=O)Nc1cccc(F)c1)CC2", "note": "(stereo not drawn)", "Potency": "inconclusive: 8.91 µM [inhibitor, full curve, poor fit]"}
{"smiles": "O=C(c1nc2sccn2c1-c1cccc(C(F)(F)F)c1)N1CCCCC1", "Potency": "inconclusive: 100 µM [inhibitor, single point]"}
{"smiles": "CC(=O)NCCNC[C@@H]1C=C(C)[C@H](Cc2nnc(-c3ccccc3)o2)C[C@H]1C(C)C", "Potency": "active: 56.2 µM"}
{"smiles": "O=C(Cn1ccn2nc(-c3ccccc3)c(CO)c2c1=O)Nc1cccc(Br)c1", "Potency": "inconclusive: 70.8 µM [inhibitor, partial curve, poor fit]"}
{"smiles": "Cc1ccc(CNC(=O)N2CCC(OC3CCN(Cc4ccccc4)CC3)CC2)cc1", "Potency": "inconclusive: 79.4 µM [inhibitor, single point]"}
{"smiles": "COc1ccc(CC(=O)NC2CCN(C(=O)c3ccc(-c4ccccc4OC)cc3)CC2)cc1", "Potency": "inconclusive: 56.2 µM [inhibitor, partial curve, poor fit]"}
{"smiles": "CCC1(C(=O)Nc2ccc(C)c(F)c2)CCCCC(=O)N1", "note": "(stereo not drawn)", "activity change, negative = cytotoxicity": "inactive: -17.3%"}
{"smiles": "O=C(C#Cc1ccccc1)NC1CCCc2c1cnn2-c1ccc(F)cc1F", "note": "(stereo not drawn)", "Potency": "inconclusive: 56.2 µM [inhibitor, partial curve, poor fit]"}
{"smiles": "Cc1ccc(S(=O)(=O)N2CCCC(CCC(=O)N3CCc4ccccc4C3)C2)cc1", "note": "(stereo not drawn)", "Potency": "inconclusive: 50.1 µM [inhibitor, partial curve, poor fit]"}
{"smiles": "Cc1ccc(Cl)cc1NC(=O)NCC1CCOCC1", "activity change, negative = cytotoxicity": "inactive: 5.31%"}
{"smiles": "Cc1cc2nc3n(c(=O)c2n1CC(=O)N1CCN(c2ccccc2)CC1)CCCCC3", "Potency": "inconclusive: 100 µM [inhibitor, single point]"}
{"smiles": "O=C(NCC1CC1)c1nc2c(o1)CCN(Cc1cccs1)CC2", "Potency": "inconclusive: 100 µM [inhibitor, partial curve]"}
{"smiles": "O=C(c1ccc2cc[nH]c2c1)N1CCCN(c2cc(-c3ccc(Cl)cc3)[nH]n2)CC1", "Potency": "active: 39.8 µM"}
{"smiles": "Cc1ccc(-c2nocc2CCC(=O)NCc2ccc(Cl)cc2)cc1", "Potency": "inconclusive: 89.1 µM [inhibitor, single point]"}
{"smiles": "COc1ccccc1CN(C(=O)c1cccc(-c2noc(C)n2)c1)C1CC1", "Potency": "inconclusive: 79.4 µM [inhibitor, partial curve, poor fit]"}
{"smiles": "COc1ccc(C(=O)N[C@@H]2CCC[C@@H]2C(=O)NCCOc2ccccc2OC)cc1", "outcome": "inactive"}
{"smiles": "O=C(c1ccc(Cl)cc1)N1CCC(n2cc(-c3ccc(OC(F)F)cc3)[nH]c2=O)CC1", "Potency": "inconclusive: 50.1 µM [inhibitor, partial curve, poor fit]"}
{"smiles": "O=C(NCCc1cccs1)c1cccc2c1CCN2C(=O)Nc1ccc(F)cc1", "Potency": "inconclusive: 22.4 µM [inhibitor, full curve]"}
{"smiles": "CCCCc1cc(C[C@H]2CNCC[C@H]2CC(=O)N(C)Cc2ccccc2)no1", "Potency": "active: 100 µM"}
{"smiles": "CN1CCN(c2ccc3ncc(Nc4ccc(OC(F)(F)F)cc4)n3n2)CC1", "Potency": "active: 50.1 µM"}
{"smiles": "O=C(NCc1ccc(F)cc1)c1nc(-c2cccc(C(F)(F)F)c2)c2cnccn12", "Potency": "inconclusive: 89.1 µM [inhibitor, partial curve, poor fit]"}
{"smiles": "COC(=O)[C@H]1CN(C(=O)N2CCOCC2)CCN1C(C)=O", "outcome": "inactive [at 172 µM]"}
{"smiles": "CC1(C)[C@H](Cc2cc(CCO)on2)C[C@@H]1NC1CCOCC1", "activity change, negative = cytotoxicity": "inactive: -23.5% [at 172 µM]"}
{"smiles": "CCN(CC)c1ccc(C(=O)NCc2nnc3ccc(-c4ccc(OC)cc4)nn23)cc1", "Potency": "inconclusive: 50.1 µM [inhibitor, partial curve, poor fit]"}
{"smiles": "O=C(NCc1ccccc1)c1cn2cc(-c3ccccc3)sc2n1", "activity change, negative = cytotoxicity": "inactive: -17.7% [at 172 µM]"}
{"smiles": "CS(=O)(=O)c1ccc(CN2CCC[C@H]2c2nc(-c3ccnc(N4CCC(C(N)=O)CC4)c3)no2)cc1", "activity change, negative = cytotoxicity": "inactive: -14.8%"}
{"smiles": "COc1ccc(C2(C(=O)N3CCC4(CC3)CC(N(C(C)=O)C3CC3)CCO4)CC2)cc1", "note": "(stereo not drawn)", "activity change, negative = cytotoxicity": "inactive: -14.7%"}
{"smiles": "COCCCNC(=O)CCN(CC(C)C)C(=O)c1cc(C)oc1C", "activity change, negative = cytotoxicity": "inactive: -28.1%"}
{"smiles": "COc1ccc(NC(=O)c2ccc(CN3C(=O)NC4(CCOCC4)C3=O)cc2)cc1", "activity change, negative = cytotoxicity": "inactive: -23.8%"}
{"smiles": "CC(C)(C)CN1CCNc2cc(Nc3ccccc3)ncc2C1", "Potency": "inconclusive: 63.1 µM [inhibitor, full curve, poor fit]"}
{"smiles": "CCSc1ncc(CN2CCN(c3ccc4nccn4n3)CC2)cn1", "Potency": "inconclusive: 44.7 µM [inhibitor, partial curve, poor fit]"}
{"smiles": "Cc1cn2nc(C(=O)Nc3ccccc3F)cc2c(N(C)Cc2ccccc2)n1", "activity change, negative = cytotoxicity": "inactive: -26.6%"}
{"smiles": "O=C(Cc1c[nH]c2ncc(-c3cccc(F)c3)cc12)NCc1cccnc1", "Potency": "active: 70.8 µM"}
{"smiles": "Cc1nn(-c2ccc(C(C)C)cc2)c(C)c1[C@@H]1C=C[C@@H](NC(=O)NC2CCCCC2)C1", "Potency": "inconclusive: 35.5 µM [inhibitor, full curve]"}
{"smiles": "O=C(c1cc(F)ccc1F)N1CCC2(CC1)NC(=O)N(Cc1ccc(F)cc1)C2=O", "Potency": "inconclusive: 44.7 µM [inhibitor, partial curve, poor fit]"}
{"smiles": "O=C(c1cccs1)N1CCC(N2C(=O)C(O)C23CCCCC3)CC1", "note": "(stereo not drawn)", "activity change, negative = cytotoxicity": "inactive: 4.14%"}
{"smiles": "COc1cccc(-c2cccc(CN3CCCC3C(=O)NCC(C)C)c2)c1", "note": "(stereo not drawn)", "Potency": "inconclusive: 50.1 µM [inhibitor, partial curve, poor fit]"}
{"smiles": "COc1cccc(C(=O)N2CCC3(CC2)CC(OCC2CC2)CCO3)c1", "note": "(stereo not drawn)", "activity change, negative = cytotoxicity": "inactive: 2.16%"}
{"smiles": "O=C(Nc1ccc(Cl)cc1Cl)c1ccc2ccnn2c1", "Potency": "inconclusive: 10 µM [inhibitor, full curve, poor fit]"}
{"smiles": "CCOC(=O)[C@@H]1CN(C(=O)C(CC)CC)[C@H]2c3ccc(OC)cc3O[C@@H]12", "Potency": "inconclusive: 44.7 µM [inhibitor, full curve, poor fit]"}
{"smiles": "CC(=O)NC1(C)CCN(Cc2cnc(-c3cccc(N(C)C)c3)s2)CC1", "Potency": "inconclusive: 100 µM [inhibitor, partial curve]"}
{"smiles": "Cc1cccc(-n2ncc3c2CCCC3NC(=O)c2c(F)ccc(F)c2F)c1C", "note": "(stereo not drawn)", "activity change, negative = cytotoxicity": "inactive: -65.8%"}
{"smiles": "CCc1ccc(CNC(=O)C2(c3ccc(NC(=O)C(C)C)cc3)CCC2)cc1", "Potency": "inconclusive: 70.8 µM [inhibitor, single point]"}
{"smiles": "COc1ccccc1C(=O)NC[C@@H]1C=C(C)[C@H](Cc2nc3ccccc3[nH]2)C[C@H]1C(C)C", "Potency": "inconclusive: 15.8 µM [inhibitor, full curve, poor fit]"}
{"smiles": "CN(Cc1cc(C[C@@H]2C[C@H](NCc3ncc[nH]3)C2(C)C)no1)c1ccccc1", "Potency": "active: 63.1 µM"}
{"smiles": "O=S(=O)(c1ccsc1-c1nc(-c2cccnn2)no1)N1CCCC1", "outcome": "inactive"}
{"smiles": "O=C1CCCN1CCCN1C(=O)[C@H]2CN(Cc3ccccc3OC(F)(F)F)C[C@H]2C1=O", "activity change, negative = cytotoxicity": "inactive: -17.2%"}
{"smiles": "N#Cc1cccc(-c2ccnc(N[C@H]3CO[C@H]4[C@@H]3OC[C@H]4OC(=O)Nc3ccc(Oc4ccccc4)cc3)n2)c1", "Potency": "inconclusive: 8.91 µM [inhibitor, full curve, poor fit]"}
{"smiles": "CCN(CC)C(=O)C[C@@H]1CCNC[C@@H]1Cc1cc(-c2ccc(OC)cc2)on1", "Potency": "inconclusive: 112 µM [inhibitor, single point]"}
